# In the supplement of paper PMC4166925:
# ± gives the standard deviation of the averaged measurements. In all, about 33,000 sequences were measured (“E-score (dimensionless, -0.5 to 0.5)”: median about -0.049, highest 2% from about 0.37 on). This is one part of the list.
# Test system: T1, PmTbr T-box DNA-binding domain (GST fusion)
# T1 sequence: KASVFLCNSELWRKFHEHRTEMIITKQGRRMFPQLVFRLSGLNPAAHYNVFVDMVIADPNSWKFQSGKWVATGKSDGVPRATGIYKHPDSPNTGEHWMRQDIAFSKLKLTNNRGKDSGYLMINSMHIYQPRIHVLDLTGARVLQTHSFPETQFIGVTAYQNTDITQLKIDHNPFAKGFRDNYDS
# Assay: PBM E-score of 8-mer (E-score (dimensionless, -0.5 to 0.5)); Tbr is Tbrain of the sea star Patiria miniata (Pm) or the sea urchin Strongylocentrotus purpuratus (Sp); higher = stronger binding preference; most listed sequences are background and not binding sites
# Conditions: the construct has about 5 more residues each side
# Method in brief: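 Each ungapped 8-mer received an enrichment E-score from the Universal PBM Analysis Suite, averaged over duplicate arrays. The proteins were Tbr T-box DNA-binding domains, covering the whole T-box plus about five flanking residues, fused to GST and expressed in BL21 E. coli at 20 °C before glutathione affinity purification. Universal Agilent oligonucleotide arrays were made double-stranded by primer extension and incubated with 200 nM protein in PBS (pH 7.5). The arrays were then scanned and quantified, and every 8-mer was scored from probe intensities.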
row,Sequence,PBM E-score of 8-mer
1,ATACAGCG,0.16 ± 0.034
2,CTTATAAC,-0.0651 ± 0.11
3,CTACCCAC,-0.138 ± 0.032
4,CTGTCAAA,0.266 ± 0.04
5,ATAGGCAT,-0.337 ± 0.021
6,ACTACTAT,-0.175 ± 0.051
7,GTCACACA,0.3901 ± 0.0019
8,GATGGCGC,0.106 ± 0.072
9,CGTGGATC,-0.236 ± 0.11
10,ACGTAAGA,-0.311 ± 0.089
11,GACTCGAA,-0.0914 ± 0.051
12,TAATTCAA,-0.292 ± 0.037
13,GCGAGTCC,-0.00724 ± 0.067
14,CTGTCGCC,0.315 ± 0.027
15,ATCGGGCC,-0.161 ± 0.05
16,AATCAACA,0.231 ± 0.033
17,CTTGAGCC,-0.0122 ± 0.073
18,GAGCTCTA,-0.351 ± 0.028
19,CGCCTGGA,0.153 ± 0.0065
20,ACATCTAG,-0.0563 ± 0.0079
21,CTTCATAC,-0.169 ± 0.023
22,ATCAACAC,0.369 ± 0.019
23,CCGTGCGA,0.294 ± 0.016
24,CTGAAAGA,-0.227 ± 0.088
25,TCTAGACA,-0.202 ± 0.044

row,Sequence,PBM E-score of 8-mer
1,AAGCAGAC,-0.0712 ± 0.048
2,AGTGGAAA,0.0588 ± 0.0019
3,GGCAATAC,-0.2 ± 0.057
4,CGAGACCG,-0.13 ± 0.033
5,GCCTTCGA,0.0621 ± 0.015
6,ACCATGGC,-0.0471 ± 0.08
7,AAAAGATA,-0.0989 ± 0.016
8,CCATCCCG,-0.0752 ± 0.0067
9,CTTATCCA,-0.081 ± 0.014
10,GATTTGCA,0.186 ± 0.033
11,AACTCCTG,0.0651 ± 0.059
12,TATCTCAA,-0.0203 ± 0.0083
13,AACCGATA,0.0224 ± 0.036
14,AATGGCGA,0.163 ± 0.021
15,ACACCGTG,0.3051 ± 0.0018
16,CCGGTTGC,-0.0645 ± 0.0032
17,GTGCTTTA,-0.0904 ± 0.095
18,GAGAGCGA,0.0903 ± 0.025
19,CCTTTGCC,-0.15 ± 0.051
20,AATTCGTA,-0.0402 ± 0.067
21,CACACATG,0.352 ± 0.0023
22,ACATTAGA,0.0204 ± 0.057
23,CCTAATAG,-0.122 ± 0.052
24,CGTTGCAG,-0.104 ± 0.023
25,GGCTTGAA,-0.122 ± 0.032

row,Sequence,PBM E-score of 8-mer
1,CCAACCCG,-0.0643 ± 0.028
2,GGTTTTAA,-0.0399 ± 0.059
3,AGACCCTG,-0.0402 ± 0.1
4,AACATGCA,-0.0907 ± 0.015
5,CCTAGCTC,-0.0926 ± 0.0015
6,TAATCGAA,-0.2 ± 0.021
7,CAAGATGG,-0.0109 ± 0.057
8,CCACTGCA,-0.155 ± 0.0029
9,AAATGGGA,-0.265 ± 0.032
10,CAAATTGG,0.0638 ± 0.043
11,GCGAAAAA,0.296 ± 0.052
12,AGACGGCC,-0.209 ± 0.017
13,CATCTAAG,-0.111 ± 0.011
14,AGACCTAC,-0.292 ± 0.035
15,CACTTTGG,0.157 ± 0.015
16,TCGATAAA,0.122 ± 0.033
17,AGGGGTTA,-0.0709 ± 0.031
18,GCCTTCAC,0.134 ± 0.019
19,CTCCGGGA,-0.177 ± 0.035
20,AGATGCGA,0.113 ± 0.0084
21,CCAAGAGA,-0.146 ± 0.038
22,CATCTGCG,-0.00142 ± 0.032
23,CGTTTTGA,-0.104 ± 0.019
24,AGTTGAAA,-0.168 ± 0.038
25,CCGACAAG,0.134 ± 0.01

row,Sequence,PBM E-score of 8-mer
1,CCCTCTCC,-0.0929 ± 0.0084
2,ATATGTGA,0.24 ± 0.064
3,CCAGTGGA,-0.0867 ± 0.012
4,CTTCACAC,0.4785 ± 0.0022
5,ATAGTAGG,-0.216 ± 0.0094
6,AGGTTCAA,-0.252 ± 0.044
7,TACCTAAA,-0.095 ± 0.033
8,GGGCGGAC,-0.106 ± 0.002
9,CTGTGCGC,-0.102 ± 0.077
10,TGGCACAA,0.156 ± 0.017
11,ATAACTGA,0.00612 ± 0.019
12,GTTGAAAC,0.0305 ± 0.025
13,GAGTAATA,-0.115 ± 0.015
14,ACATTACT,0.00117 ± 0.07
15,AGACTCTC,-0.107 ± 0.007
16,CCATTAAC,0.0966 ± 0.0036
17,TCGTGGAA,-0.0067 ± 0.0066
18,CGAGATTA,0.05103 ± 0.00044
19,AAGAAGCC,-0.123 ± 0.078
20,AACGTCAT,-0.148 ± 0.028
21,AGTTAGGC,-0.0248 ± 0.0073
22,AGCATCAA,-0.0566 ± 0.017
23,ACGTCCGG,-0.218 ± 0.018
24,GGGCTTTA,-0.191 ± 0.037
25,CACTTGTC,0.402 ± 0.0079

row,Sequence,PBM E-score of 8-mer
1,ACGCTGAA,-0.147 ± 0.063
2,TAACTCCA,-0.0323 ± 0.0018
3,GCGCCTCC,0.203 ± 0.042
4,CTAGCCGA,0.0265 ± 0.0029
5,GTCCAACA,0.198 ± 0.045
6,CTTATGGC,-0.0928 ± 0.041
7,AAGACCGT,-0.0844 ± 0.049
8,AGTCCCGA,-0.181 ± 0.05
9,CTCGCTGC,0.0611 ± 0.026
10,ACCTAAGG,0.117 ± 0.074
11,ATGGGATG,0.00088 ± 0.047
12,CTGGCACA,0.241 ± 0.0048
13,ATTTTCGC,0.278 ± 0.036
14,AATAGCAC,0.325 ± 0.023
15,GCGTAGTA,-0.206 ± 0.003
16,CAAATGAC,-0.0464 ± 0.045
17,AACTCAAC,-0.0361 ± 0.029
18,GCCAGGCC,-0.201 ± 0.02
19,GTCATCAA,0.00227 ± 0.021
20,AAGCGAGA,0.0275 ± 0.00037
21,ACCTCGGA,0.15 ± 0.011
22,GACCCGGC,-0.22 ± 0.057
23,GCGGCACA,0.122 ± 0.027
24,CACGTTGA,0.29 ± 0.072
25,GGTTCGGA,-0.266 ± 0.021

row,Sequence,PBM E-score of 8-mer
1,TCTACAGA,-0.188 ± 0.069
2,AGCAAACG,-0.108 ± 0.084
3,ATGAGCGA,0.12 ± 0.015
4,ATTTAACC,-0.254 ± 0.013
5,GTTTAGCA,0.209 ± 0.019
6,AACAACTA,0.232 ± 0.0059
7,TCCAGCGA,-0.0506 ± 0.064
8,CGAGGAGC,-0.0722 ± 0.028
9,GCAACTAC,0.0449 ± 0.047
10,CACGACTA,-0.0119 ± 0.023
11,GCTAGCCA,-0.0642 ± 0.047
12,GTTACCGA,0.115 ± 0.019
13,CTCTATGC,-0.142 ± 0.027
14,TAGAACAA,-0.174 ± 0.078
15,CACGGGCC,-0.211 ± 0.0096
16,CGCGTATA,-0.0467 ± 0.058
17,CGGATTAA,-0.0265 ± 0.037
18,GTCCGAAC,-0.124 ± 0.011
19,AGGGGCAC,-0.267 ± 0.066
20,CACAAACG,0.116 ± 0.011
21,CCGTGGAC,-0.0146 ± 0.033
22,CGGGATAA,0.105 ± 0.043
23,AGTTCAGG,-0.237 ± 0.059
24,AGTGGACA,0.0305 ± 0.022
25,ATCTAGCG,0.129 ± 0.017

row,Sequence,PBM E-score of 8-mer
1,CCTTTGGC,0.0109 ± 0.046
2,CACTAGAA,0.0919 ± 0.016
3,CGAATTTC,0.0127 ± 0.024
4,CACCTCCG,0.447 ± 0.0095
5,CCGGCGGC,-0.0645 ± 0.0043
6,CACGACAC,0.314 ± 0.0061
7,CCACAAGA,-0.0528 ± 0.056
8,ATAGCATG,-0.0232 ± 0.021
9,GGATAAAA,-0.2119 ± 0.0021
10,AGACACAC,0.174 ± 0.041
11,CGAACCCC,-0.137 ± 0.043
12,ATGTTGTC,0.237 ± 0.041
13,AGGTGCGC,0.293 ± 0.023
14,CTGAACCC,-0.229 ± 0.051
15,CCAACGAA,0.00483 ± 0.048
16,GTACTCCA,-0.205 ± 0.026
17,GAATTCTA,-0.194 ± 0.041
18,GAAGTTCC,-0.252 ± 0.073
19,GCGACAAC,0.363 ± 0.023
20,AAGTAACC,-0.0622 ± 0.014
21,GCCTAATA,-0.237 ± 0.034
22,ATGCGTCA,0.161 ± 0.013
